# The supplement of paper PMC8728848
# The other results are listed elsewhere or left out.
# Key:
# Experiment in all cases: glycan array binding signal (z-score within array); higher = stronger binding
# Settings in all cases: glycan notation: IUPAC condensed, linker removed
# [1] = biological target: GlcNAc(a1-4)Gal(b1-4)GlcNAc(b1-3)Gal(b1-4)GlcNAc
# Outline: (§1)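 The Consortium for Functional Glycomics database supplied 3228 glycan arrays, of which those lacking an available protein sequence were dropped. The binding signal, a within-array Z-score, was averaged across arrays of the same protein sequence and across linkers. Negative scores can be read as non-binding.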
# [2] = biological target: GlcNAc(a1-4)Gal(b1-4)GlcNAc(b1-3)Gal(b1-4)GlcNAc(b1-3)Gal(b1-4)GlcNAc
# Outline: as §1
# [3] = biological target: GlcNAc(a1-4)Gal(b1-4)GlcNAc(b1-3)Gal(b1-4)[Fuc(a1-3)]GlcNAc(b1-3)Gal(b1-4)[Fuc(a1-3)]GlcNAc
# Outline: as §1
# [4] = biological target: GlcNAc(a1-6)Gal(b1-4)GlcNAc
# Outline: as §1
# [5] = biological target: GlcNAc(b1-2)Gal(b1-3)GalNAc
# Outline: as §1
# [6] = biological target: GlcNAc(b1-2)Man(a1-3)[GlcNAc(b1-2)Man(a1-6)]Man(b1-4)GlcNAc(b1-4)GlcNAc
# Outline: as §1
# [7] = biological target: GlcNAc(b1-2)Man(a1-3)[GlcNAc(b1-2)Man(a1-6)]Man(b1-4)GlcNAc(b1-4)[Fuc(a1-6)]GlcNAc
# Outline: as §1
# [8] = biological target: GlcNAc(b1-2)Man(a1-3)[GlcNAc(b1-4)][GlcNAc(b1-2)Man(a1-6)]Man(b1-4)GlcNAc(b1-4)GlcNAc
# Outline: as §1
# [9] = biological target: GlcNAc(b1-2)[GlcNAc(b1-4)]Man(a1-3)[GlcNAc(b1-2)Man(a1-6)]Man(b1-4)GlcNAc(b1-4)GlcNAc
# Outline: as §1
# [10] = biological target: GlcNAc(b1-2)[GlcNAc(b1-4)]Man(a1-3)[GlcNAc(b1-4)][GlcNAc(b1-2)Man(a1-6)]Man(b1-4)GlcNAc(b1-4)GlcNAc
# Outline: as §1
# [11] = biological target: GlcNAc(b1-2)[GlcNAc(b1-4)]Man(a1-3)[GlcNAc(b1-4)][GlcNAc(b1-2)[GlcNAc(b1-6)]Man(a1-6)]Man(b1-4)GlcNAc(b1-4)GlcNAc
# Outline: as §1
# [12] = biological target: GlcNAc(b1-2)[GlcNAc(b1-6)]Man(a1-6)[GlcNAc(b1-2)Man(a1-3)]Man(b1-4)GlcNAc(b1-4)GlcNAc
# Outline: as §1
# [13] = biological target: GlcNAc(b1-2)[GlcNAc(b1-6)]Man(a1-6)[GlcNAc(b1-2)Man(a1-3)][GlcNAc(b1-4)]Man(b1-4)GlcNAc(b1-4)GlcNAc
# Outline: as §1
# GlcNAc(b1-3)Gal = biological target: GlcNAc(b1-3)Gal
# Outline: as §1
# [14] = biological target: GlcNAc(b1-3)Gal(b1-3)GalNAc
# Outline: as §1
# GlcNAc(b1-3)Gal(b1-4)Glc = biological target: GlcNAc(b1-3)Gal(b1-4)Glc
# Outline: as §1
# [15] = biological target: GlcNAc(b1-3)Gal(b1-4)GlcNAc
# Outline: as §1
# [16] = biological target: GlcNAc(b1-3)Gal(b1-4)GlcNAc(b1-3)Gal(b1-4)GlcNAc
# Outline: as §1
# GlcNAc(b1-3)GalNAc = biological target: GlcNAc(b1-3)GalNAc
# Outline: as §1
# GlcNAc(b1-3)Man = biological target: GlcNAc(b1-3)Man
# Outline: as §1
# [17] = biological target: GlcNAc(b1-3)[GlcNAc(b1-4)][GlcNAc(b1-6)]GlcNAc
# Outline: as §1
# [18] = biological target: GlcNAc(b1-3)[GlcNAc(b1-6)]Gal(b1-4)GlcNAc
# Outline: as §1
# [19] = biological target: GlcNAc(b1-3)[GlcNAc(b1-6)]GalNAc
# Outline: as §1
# [20] = biological target: GlcNAc(b1-4)Gal(b1-4)GlcNAc
# Outline: as §1
# GlcNAc(b1-4)GlcNAc = biological target: GlcNAc(b1-4)GlcNAc
# Outline: as §1
# [21] = biological target: GlcNAc(b1-4)GlcNAc(b1-4)GlcNAc
# Outline: as §1
# [22] = biological target: GlcNAc(b1-4)GlcNAc(b1-4)GlcNAc(b1-4)GlcNAc(b1-4)GlcNAc
# Outline: as §1
# [23] = biological target: GlcNAc(b1-4)GlcNAc(b1-4)GlcNAc(b1-4)GlcNAc(b1-4)GlcNAc(b1-4)GlcNAc
# Outline: as §1
# [24] = biological target: GlcNAc(b1-4)[GlcNAc(b1-6)]GalNAc
# Outline: as §1
# [25] = biological target: GlcNAc(b1-6)Gal(b1-4)GlcNAc
# Outline: as §1
# GlcNAc(b1-6)GalNAc = biological target: GlcNAc(b1-6)GalNAc
# Outline: as §1
# GlcNAc3Prop(b1-4)GlcNAc = biological target: GlcNAc3Prop(b1-4)GlcNAc
# Outline: as §1
# [26] = biological target: GlcNAc6S(b1-3)Gal(b1-4)GlcNAc
# Outline: as §1
# Kdn(a2-3)Gal(b1-3)GalNAc = biological target: Kdn(a2-3)Gal(b1-3)GalNAc
# Outline: as §1
# Kdn(a2-3)Gal(b1-3)GlcNAc = biological target: Kdn(a2-3)Gal(b1-3)GlcNAc
# Outline: as §1
# Kdn(a2-3)Gal(b1-4)Glc = biological target: Kdn(a2-3)Gal(b1-4)Glc
# Outline: as §1
# Kdn(a2-3)Gal(b1-4)GlcNAc = biological target: Kdn(a2-3)Gal(b1-4)GlcNAc
# Outline: as §1
# [27] = biological target: Kdn(a2-3)Gal(b1-4)[Fuc(a1-3)]GlcNAc
# Outline: as §1
# Kdn(a2-6)Gal(b1-4)GlcNAc = biological target: Kdn(a2-6)Gal(b1-4)GlcNAc
# Outline: as §1
# [28] = biological target: Man(a1-2)Man(a1-2)Man(a1-3)Man
# Outline: as §1
# [29] = biological target: Man(a1-2)Man(a1-2)Man(a1-6)[Man(a1-3)]Man
# Outline: as §1
# Man(a1-2)Man(a1-3)Man = biological target: Man(a1-2)Man(a1-3)Man
# Outline: as §1
# [30] = biological target: Man(a1-2)Man(a1-3)[Man(a1-2)Man(a1-6)]Man
# Outline: as §1
# [31] = biological target: Man(a1-2)Man(a1-3)[Man(a1-2)Man(a1-6)]Man(a1-6)[Man(a1-2)Man(a1-2)Man(a1-3)]Man
# Outline: as §1
# [32] = biological target: Man(a1-2)Man(a1-3)[Man(a1-2)Man(a1-6)]Man(a1-6)[Man(a1-2)Man(a1-2)Man(a1-3)]Man(b1-4)GlcNAc(b1-4)GlcNAc
# Outline: as §1
binder,measurement,setting,value
"SefD (Salmonella enterica), Q9L6K6 (protein) GAYIIRGQNNSAHKLRIRIGGEDWQPDNSGIGMVSHSDFTNEFNIYYFGNGDIPVDTYLISIYATEIEL",glycan array binding signal (z-score),[1],1.45
same,glycan array binding signal (z-score),[2],-0.4
same,glycan array binding signal (z-score),[3],-0.231
same,glycan array binding signal (z-score),[4],-0.083
same,glycan array binding signal (z-score),[5],-0.217
same,glycan array binding signal (z-score),[6],0.117
same,glycan array binding signal (z-score),[7],-0.396
same,glycan array binding signal (z-score),[8],-0.112
same,glycan array binding signal (z-score),[9],-0.587
same,glycan array binding signal (z-score),[10],-0.079
same,glycan array binding signal (z-score),[11],0.465
same,glycan array binding signal (z-score),[12],-0.45
same,glycan array binding signal (z-score),[13],0.138
same,glycan array binding signal (z-score),GlcNAc(b1-3)Gal,-0.349
same,glycan array binding signal (z-score),[14],-0.29
same,glycan array binding signal (z-score),GlcNAc(b1-3)Gal(b1-4)Glc,-0.244
same,glycan array binding signal (z-score),[15],-0.394
same,glycan array binding signal (z-score),[16],-0.39
same,glycan array binding signal (z-score),GlcNAc(b1-3)GalNAc,-0.427
same,glycan array binding signal (z-score),GlcNAc(b1-3)Man,0.855
same,glycan array binding signal (z-score),[17],-0.392
same,glycan array binding signal (z-score),[18],-0.371
same,glycan array binding signal (z-score),[19],-0.43
same,glycan array binding signal (z-score),[20],0.874
same,glycan array binding signal (z-score),GlcNAc(b1-4)GlcNAc,0.15
same,glycan array binding signal (z-score),[21],-0.059
same,glycan array binding signal (z-score),[22],0.017
same,glycan array binding signal (z-score),[23],-0.363
same,glycan array binding signal (z-score),[24],-0.55
same,glycan array binding signal (z-score),[25],-0.289
same,glycan array binding signal (z-score),GlcNAc(b1-6)GalNAc,-0.218
same,glycan array binding signal (z-score),GlcNAc3Prop(b1-4)GlcNAc,6.32
same,glycan array binding signal (z-score),[26],-0.087
same,glycan array binding signal (z-score),Kdn(a2-3)Gal(b1-3)GalNAc,-0.287
same,glycan array binding signal (z-score),Kdn(a2-3)Gal(b1-3)GlcNAc,-0.283
same,glycan array binding signal (z-score),Kdn(a2-3)Gal(b1-4)Glc,-0.629
same,glycan array binding signal (z-score),Kdn(a2-3)Gal(b1-4)GlcNAc,-0.453
same,glycan array binding signal (z-score),[27],-0.155
same,glycan array binding signal (z-score),Kdn(a2-6)Gal(b1-4)GlcNAc,0.3
same,glycan array binding signal (z-score),[28],-0.374
same,glycan array binding signal (z-score),[29],-0.385
same,glycan array binding signal (z-score),Man(a1-2)Man(a1-3)Man,-0.321
same,glycan array binding signal (z-score),[30],-0.393
same,glycan array binding signal (z-score),[31],-0.15
same,glycan array binding signal (z-score),[32],-0.324
